# Measurements as given in PubChem BioAssay (NCATS).
# Several values for one entry are separate records, joined by “and”; a condition that tells them apart may be missing. Equal values may be shown once. The inconclusive results got no clear call from the source; some entries with a clear call stand among them for comparison. A potency beside an inconclusive call is a rough fit, not a confirmed value. Activity calls are given as the source filed them. The call rests on the fitted dose curve; in most records, active means well fitted curve in the direction sought with a large enough effect; inconclusive means small, poorly fitted or top-dose-only effect, or another doubt; inactive means no such curve, though single readings can be large; an effect the other way counts as inactive or inconclusive.
# How the values were obtained:
# [1] = target: Cytochrome P450 3A7 (Homo sapiens) (UniProt P24462); assay: Cytochrome P450 family 3 subfamily A member 7 (CYP3A7) small molecule antagonists: luciferase biochemical qHTS assay (AID 1963596); on activity change, negative = inhibition: on the % scale 0 is the no-effect control and ±100 the full control effect
# Method in brief: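 Compounds were screened in qHTS format for interference with CYP3A7 turnover of a proluciferin substrate. Reactions ran 1 h at room temperature after NADPH regeneration solution was added, then luciferin product was detected by luminescence.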
# [2] = Viability qHTS for spleen associated tyrosine kinase inhibitor (SYKi) naive MV4-11 cells (AID 1963823); details: MV4-11 AML viability, CellTiter-Glo luminescence, 72 h; viability (% of control): at 45 µM (top of the series)
# Method in brief: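 Read-out: CellTiter-Glo luminescence. Exposure: 72 hr, 37 C, 5% CO2, 95% humidity. Cells: MV4-11 without SYK inhibitor history, 500/well, qHTS format.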
# Further: nearly all actives have a fitted effect of over 40% in size.
# Potency means the concentration at half of the fitted maximal effect; tags describe the fitted curve by direction and shape.
# Chain of UniProt P24462 (P24462 whole entry, looked up): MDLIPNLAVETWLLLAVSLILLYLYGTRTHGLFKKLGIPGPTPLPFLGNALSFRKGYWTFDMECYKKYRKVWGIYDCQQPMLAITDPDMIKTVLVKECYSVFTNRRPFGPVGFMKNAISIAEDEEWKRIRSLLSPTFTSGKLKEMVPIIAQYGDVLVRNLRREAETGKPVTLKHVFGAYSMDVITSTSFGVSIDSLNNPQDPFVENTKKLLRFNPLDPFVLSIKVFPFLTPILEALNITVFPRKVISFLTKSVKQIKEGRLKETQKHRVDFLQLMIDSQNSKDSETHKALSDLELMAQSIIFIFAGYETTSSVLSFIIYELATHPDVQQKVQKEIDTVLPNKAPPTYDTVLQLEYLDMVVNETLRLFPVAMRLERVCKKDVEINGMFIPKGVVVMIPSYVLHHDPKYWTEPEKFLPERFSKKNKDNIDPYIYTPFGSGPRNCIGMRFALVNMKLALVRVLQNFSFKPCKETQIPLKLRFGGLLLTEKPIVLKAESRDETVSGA
smiles,measurement,setting,value
CCn1ccnc1CC1COc2ccccc2O1 (stereo not given),Potency,[1],"inconclusive: 17.4 µM [inhibitor, partial curve]"
same,Potency,[2],inactive
CCN1CCN(c2cc(-c3ccc(F)cc3)c3c(n2)CCCCCC3)CC1,Potency,[1],"inconclusive: 12 µM [inhibitor, single point]"
same,Potency,[2],inactive
CCOc1cn(-c2ccc(F)cc2C)nc1C(=O)Nc1ccc(Oc2ccnc3cc(OC)c(OC)cc23)c(F)c1,Potency,[1],"inconclusive: 4.77 µM [inhibitor, partial curve]"
same,Potency,[2],active: 0.259 µM
CC1CCC(n2c3cnccc3c3cnc(Nc4ccc5c(n4)CCN(C(=O)CO)C5)nc32)CC1 (stereo not given),Potency,[1],"inconclusive: 3.79 µM [inhibitor, full curve]"
same,Potency,[2],"inconclusive: 82 nM [cytotoxic, full curve] and inconclusive: 95.9 nM [cytotoxic, full curve]"
CCOC(=O)NNc1nncc2ccccc12,Potency,[1],"inconclusive: 34.7 µM [inhibitor, partial curve, poor fit]"
same,Potency,[2],"inconclusive: 15 µM [cytotoxic, partial curve, poor fit]"
CCn1cc(C(=O)O)c(=O)c2cnc(N3CCCC3)nc21,"activity change, negative = inhibition",[1],inactive: 25.3% [at 11.5 µM]
same,viability (% of control),[2],inactive: 74.1% [at 9.25 µM]
O=C1OC(OC(=O)c2cccnc2Nc2cccc(C(F)(F)F)c2)c2ccccc21 (stereo not given),Potency,[1],inactive
same,Potency,[2],inactive
FCOC(C(F)(F)F)C(F)(F)F,Potency,[1],inactive
CC(=O)Nc1ccc(OC(=O)c2ccccc2OC(C)=O)cc1,Potency,[1],"inconclusive: 4.9 µM [inhibitor, full curve, poor fit]"
same,Potency,[2],inactive
OCc1ccccc1O,Potency,[1],inactive
same,Potency,[2],inactive
Cn1c2ccc(NC(=O)c3ccccc3)cc2c(=O)n2nc(C(=O)O)cc12,Potency,[1],inactive
same,Potency,[2],"inconclusive: 0.0022 µM [cytotoxic, full curve, poor fit]"
O=C(Cn1ccnc1[N+](=O)[O-])NCCO,Potency,[1],inactive
same,Potency,[2],inactive
NC[C@H]1O[C@H](O[C@H]2[C@H](O)[C@@H](O[C@H]3O[C@H](CO)[C@@H](O)[C@H](N)[C@H]3O)[C@H](N)C[C@@H]2N)[C@H](N)[C@@H](O)[C@@H]1O,Potency,[1],inactive
same,Potency,[2],inactive
COc1ccccc1NC(=O)c1oc2ccccc2c1NC(=O)c1ccccc1C(F)(F)F,Potency,[1],"inconclusive: 3.16 µM [inhibitor, full curve]"
Cc1ccccc1Cc1c(C)nc2c(-c3ccccc3)c(C)[nH]n2c1=O,Potency,[1],"inconclusive: 8.91 µM [inhibitor, full curve]"
c1ccc(-c2cnn3cc(-c4ccc(OCCN5CCOCC5)cc4)cnc23)cc1,Potency,[1],"inconclusive: 10.7 µM [inhibitor, partial curve]"
same,Potency,[2],active: 0.0184 µM
O=C(O)c1ccccc1-c1ccc(C(F)(F)F)cc1,Potency,[1],inactive
same,Potency,[2],inactive
CCCCCCOC(=O)/N=C(\N)c1ccc(NCc2nc3cc(C(=O)N(CCC(=O)OCC)c4ccccn4)ccc3n2C)cc1,Potency,[1],inactive
CC1(C#N)CCN(c2c(C(=O)N3CCN(C(=O)N4CCCC4)CC3)cnc3c(F)cc(F)cc23)CC1,Potency,[1],"inconclusive: 14.1 µM [inhibitor, partial curve]"
CC(C)c1cc(-c2ccc(F)c3ccccc23)nc(N)n1,Potency,[1],"inconclusive: 35.5 µM [inhibitor, single point]"
same,Potency,[2],"inconclusive: 16.4 µM [cytotoxic, partial curve]"
Cc1cc(C)cc(NC(=O)Cc2ccc(OC(C)(C)C(=O)O)cc2)c1,Potency,[1],inactive
same,Potency,[2],inactive
CCn1c(N)c(C(=O)NC)c(=O)c2ccc(C#C[C@@](C)(O)COC)nc21,Potency,[1],inactive
Cc1cc(CNC(=O)c2cc(C(=O)NCc3ccc(F)c(C)c3)ncn2)ccc1F,Potency,[1],"inconclusive: 1.78 µM [inhibitor, full curve]"
same,Potency,[2],inactive
Cc1cc(C)c(NC(=O)N(Cc2ccc3c(c2)Cc2ccccc2-3)C2CCCCCC2)c(C)c1,Potency,[1],"inconclusive: 10 µM [inhibitor, partial curve, poor fit]"
same,Potency,[2],"inconclusive: 10.3 µM [cytotoxic, partial curve]"
CC(=O)CC/C=C(\C)CC/C=C(\C)CC/C=C(\C)CCC=C(C)C,Potency,[1],"inconclusive: 38.9 µM [inhibitor, single point]"
same,Potency,[2],"inconclusive: 21.1 µM [cytotoxic, single point]"
Cc1cc(NC(=O)C2=C(O)c3ccccc3S(=O)(=O)N2C)no1,Potency,[1],inactive
same,Potency,[2],inactive
CNC(=O)COC(=O)NCCC1CCN(c2cccc(C)n2)CC1,Potency,[1],"inconclusive: 12 µM [inhibitor, partial curve]"
same,Potency,[2],inactive
O=C(NCc1ccc(OC(F)(F)F)cc1)C1c2ccccc2C(=O)N1C1CCOCC1 (stereo not given),Potency,[1],"inconclusive: 10 µM [inhibitor, partial curve]"
same,Potency,[2],inactive
O=C(O)CCCC[C@@H]1SC[C@@H]2NC(=O)N[C@@H]21,Potency,[1],"inconclusive: 21.9 µM [inhibitor, single point]"
same,Potency,[2],inactive
CC(=O)c1ccc(OCC(=O)N2CCCCC2)cc1,Potency,[1],inactive
same,Potency,[2],"inconclusive: 21.1 µM [cytotoxic, partial curve, poor fit]"
CN1N=C(C(N)=O)CCC1=O,Potency,[1],inactive
COc1cc(/C=C/C(=O)O[C@H]2CC[C@]34C[C@]35CC[C@]3(C)[C@@H]([C@H](C)CCC=C(C)C)CC[C@@]3(C)[C@@H]5CC[C@H]4C2(C)C)ccc1O,Potency,[1],"inconclusive: 34.7 µM [inhibitor, partial curve, poor fit]"
same,Potency,[2],"inconclusive: 18.4 µM [cytotoxic, single point]"
COCCOc1nc(N)c2[nH]c(=O)n(Cc3ccc(C(=O)O)cc3)c2n1,Potency,[1],"inconclusive: 26.8 µM [inhibitor, partial curve]"
O=C(Nc1ccccc1)c1ccc(Nc2nnc(-c3ccc(O)cc3)c3ccccc23)cc1,Potency,[1],"inconclusive: 1.9 µM [inhibitor, full curve]"
CC(=O)N[C@@H](CCC(N)=O)C(=O)O,Potency,[1],inactive
same,Potency,[2],inactive
COc1ccc(Oc2c(Cl)cnn(-c3cc(C)cc(C)c3)c2=O)cc1,Potency,[1],"inconclusive: 2.39 µM [inhibitor, full curve]"
same,Potency,[2],active: 2.31 µM
Cc1nnc(SCC2=C(C(=O)O)N3C(=O)[C@@H](NC(=O)Cn4cnnn4)[C@H]3SC2)s1,Potency,[1],"inconclusive: 38.9 µM [inhibitor, single point]"
same,Potency,[2],"inconclusive: 21.1 µM [cytotoxic, partial curve, poor fit]"
Cc1onc(-c2c(F)cccc2Cl)c1C(=O)Cl,Potency,[1],"inconclusive: 13.5 µM [inhibitor, partial curve]"
CN[C@@H]1[C@H](O)[C@H](NC)[C@H]2O[C@@]3(O)C(=O)C[C@@H](C)O[C@H]3O[C@@H]2[C@H]1O,Potency,[1],"inconclusive: 38.9 µM [inhibitor, single point]"
same,Potency,[2],inactive
CN(C)CCn1cc(S(=O)(=O)c2cccc(F)c2)c2cccnc21,Potency,[1],"inconclusive: 15.8 µM [inhibitor, partial curve]"
same,Potency,[2],inactive
O=C(O)CCC(=O)c1ccc(-c2ccccc2)cc1,Potency,[1],"inconclusive: 38.9 µM [inhibitor, partial curve, poor fit]"
same,Potency,[2],inactive
CCOc1cc(C(C)(C)C)ccc1C1=NC(C)(c2ccc(Cl)cc2)C(C)(c2ccc(Cl)cc2)N1C(=O)N1CCN(CCCS(C)(=O)=O)CC1 (stereo not given),Potency,[1],active: 2.82 µM
same,Potency,[2],active: 10.3 µM
COc1ccc(Oc2c(Cl)cnn(C3c4ccccc4-c4ccccc43)c2=O)cc1,Potency,[1],"inconclusive: 10.7 µM [inhibitor, partial curve]"
same,Potency,[2],"inconclusive: 8.2 µM [cytotoxic, partial curve]"
CN(C)CCn1nnnc1SCC1=C(C(=O)O)N2C(=O)[C@@H](NC(=O)Cc3csc(N)n3)[C@H]2SC1,Potency,[1],"inconclusive: 9.77 µM [inhibitor, partial curve]"
same,Potency,[2],inactive
Cn1c(=O)c2c(ncn2C)n(C)c1=O,Potency,[1],inactive
same,Potency,[2],inactive
CC(C)(C)c1ccc(CN2CCN(C(c3ccccc3)c3ccc(Cl)cc3)CC2)cc1 (stereo not given),Potency,[1],"inconclusive: 8.91 µM [inhibitor, partial curve, poor fit]"
same,Potency,[2],"inconclusive: 25.9 µM [cytotoxic, single point]"
CC(=O)NCCCCCC(=O)O,Potency,[1],inactive
same,Potency,[2],inactive
CC(C)c1cccc(C(C)C)c1NC(=O)Nc1ccc(Sc2ccc([N+](=O)[O-])cc2)cc1,Potency,[1],inactive
same,Potency,[2],active: 7.31 µM
CC(C)(C)NCC(O)COc1ccccc1OCC1CCCO1 (stereo not given),Potency,[1],"inconclusive: 24.5 µM [inhibitor, partial curve, poor fit]"
same,Potency,[2],"inconclusive: 0.0119 µM [cytotoxic, full curve]"
OCCOCCN1CCN(C2=Nc3ccccc3Sc3ccccc32)CC1,Potency,[1],"inconclusive: 24.5 µM [inhibitor, single point]"
same,Potency,[2],"inconclusive: 18.8 µM [cytotoxic, single point]"
Nc1ncnc2nc[nH]c12,Potency,[1],"inconclusive: 27.5 µM [inhibitor, single point]"
same,Potency,[2],"inconclusive: 33.5 µM [rising, single point]"
C=CC(=O)Nc1cc(Nc2nccc(-c3c[nH]c4ccccc34)n2)c(OC)cc1N(C)CCN(C)C,Potency,[1],inactive
same,Potency,[2],active: 0.411 µM
NC(CS)C(=O)O (stereo not given),Potency,[1],inactive
same,Potency,[2],inactive
CS(=O)(=O)N(CC(=O)NCC1CC1)c1cc(C(F)(F)F)ccc1Cl,Potency,[1],"inconclusive: 22.4 µM [inhibitor, partial curve]"
same,Potency,[2],inactive
C[C@H]1O[C@@H](O[C@H]2[C@@H](O)C[C@H](O[C@H]3[C@@H](O)C[C@H](O[C@H]4CC[C@@]5(C)[C@H](CC[C@@H]6[C@@H]5C[C@@H](O)[C@]5(C)[C@@H](C7=CC(=O)OC7)CC[C@]65O)C4)O[C@@H]3C)O[C@@H]2C)C[C@H](O)[C@@H]1O,Potency,[1],inactive
same,Potency,[2],active: 103 nM and active: 118 nM
